Data as given in ChEMBL document CHEMBL4888484, “Replenishing the malaria drug discovery pipeline: Screening and hit evaluation of the MMV Hit Generation Library 1 (HGL1) against asexual blood stage Plasmodium falciparum ,using a nano luciferase reporter read-out” (2022).
Hit rate of the full screen: of about 150,000 compounds, about 540 (0.36%) showed an effect of 50% or more. The list shows a part of the results.

The compounds below were run on Plasmodium falciparum (assay: Primary screen in NF54 nanoGlo assay, in single point, at 2uM, 72h; a lower Z score goes with more inhibition). Conditions: timepoint 72 hour.
Format: functional, Erythrocyte

| Compound | % Inhibition [%] | Z score |
| --- | --- | --- |
| CC(C)c1nc(N2CCC(CS(C)(=O)=O)CC2)c2cc[nH]c2n1 | -7 | 1.01 |
| CCCC1C(=O)CC(C#N)(C#N)C(C#N)(C#N)C1C (centres undefined) | -10 | 1.05 |
| CC(C)(C)OC(=O)N1CCN[C@H](c2ccncc2)C1 | -8 | 1.07 |
| CCOc1ccc(-c2cc3c(=O)n(Cc4nc(-c5ccccc5)oc4C)ccn3n2)cc1Cl | -16 | 1.56 |
| CN1CCN(C[C@H]2CCCN(c3ncnc4cc(F)ccc34)C2)CC1 | -4 | 0.65 |
| CC[C@@H](C(=O)NCCc1ccccn1)n1c(Cc2ccccc2Cl)nc2cc(C)c(C)cc21 | -3 | 0.44 |
| O=C(NC1C2CCC(C2)C1CO)c1cncc(F)c1 (centres undefined) | -7 | 1.29 |
| Cc1ccc(N2CC[C@@]3(CCCN(CCc4ccccc4)C3)C2)nn1 | -19 | 2.42 |
| COc1ccnc(CN2CC(C)(C)[C@@](C)(O)C2)c1 | -11 | 2.1 |
| Cc1cccc(C)c1NC(=O)c1nc(N2CCCCC2)c2c(C)c(C)n(-c3ccccc3)c2n1 | 4 | -0.6 |
| COc1ccc(C(=O)N2CCCC2)cc1S(=O)(=O)Nc1ccc(Oc2ccccc2)cc1 | -4 | 0.62 |
| O=C(Nc1ccsc1C(=O)NC1CCCCC1)c1cnccn1 | 31 | -4.01 |
| CCC(CC)C1CCN(C(=NC)NCC2CN(C)CCN2C)C1 (centres undefined) | -10 | 1.09 |
| O=C1NCCN(C(=O)c2cn[nH]c2)[C@H]1c1cccc(Br)c1 | -8 | 1.51 |
| COCC1(N(C)C(=O)[C@@H](C)Cn2cncn2)CC1 | -12 | 1.2 |
| Cc1[nH]nc2ncc(-c3nc(-c4ccncc4)no3)cc12 | -13 | 1.45 |
| CCNC(=NC[C@H](C)c1ncc(C)s1)NCC | -10 | 1.39 |
| Cc1nn(C(C)(C)C)cc1[C@H](C)NC(=O)Nc1ccc2c(c1)N(C)CCO2 | -10 | 1.3 |
| COc1ccccc1CN(C(=O)NCc1nc(C(N)=O)no1)C1CCCC1 | 7 | -0.9 |
| CCc1nc(C)sc1CNC(=O)Cc1nc2nc(C)cc(O)n2n1 | -8 | 0.96 |
| COc1cccc(CN2CCO[C@@H](CNC(C)=O)C2)n1 | 5 | -0.97 |
| Cc1nnc([C@H]2CCN(Cc3cnc4ccccc4c3)C2)o1 | -1 | 0.17 |

| Compound | % Inhibition [%] | Z score |
| --- | --- | --- |
| Cn1cc(C(=O)N2CC=C(c3ccc(Cl)c(C(F)(F)F)c3)CC2)nn1 | 2 | -0.35 |
| CN1CC[C@H](CN(C)S(=O)(=O)Cc2ccccc2)C1(C)C | -11 | 1.33 |
| Cc1ncoc1-c1nnc(-c2cn(C)nn2)o1 | -11 | 1.45 |
| CCN(C)C(=O)c1cc(C)cc(Br)c1 | -10 | 1.25 |
| O=S(=O)(CC1CC1)N[C@H]1CC12CCCCC2 | 7 | -1.3 |
| C[C@H]1CN(c2cccc(C(F)(F)F)n2)CCS1(=O)=O | 0 | 0.05 |
| Cc1noc(-c2cccnc2NCc2ccccn2)n1 | 8 | -0.91 |
| C[C@H](NCCCN1CCCC1=O)c1ccc2c(c1)C(C)(C)C(=O)N2 | -4 | 0.49 |
| C[C@@H](c1ccc(C(=O)NCc2cccc(Cl)c2)o1)N1CCCCC1 | -1 | 0.24 |
| O=C(Nc1ccc(N2CCOCC2)cc1)c1nn(-c2ccccc2C(F)(F)F)cc1O | -8 | 0.71 |
| CCS(=O)(=O)N(C)Cc1cccc(OC(C)C)c1 | -7 | 0.84 |
| CC(C)N(CCn1ccnc1-c1ccoc1)C(C)C | 14 | -2.57 |
| CN(C)C(=O)CNC(=O)Nc1ccc(Cl)cc1 | 7 | -0.8 |
| Cc1cc(C)c2c(C)c(C(=O)N3CCOC34CCCCC4)oc2c1 | 1 | -0.11 |
| COc1ccc(CNC(=O)C(=O)NC(C)C)cc1 | -13 | 2.44 |
| C[C@H](NCCc1cccc(C(=O)N(C)C)c1)c1cc2ccccc2o1 | -7 | 0.99 |
| Cc1cc(-c2nc([C@]3(c4ccc(F)cc4)CCOC3)no2)[nH]n1 | -9 | 1.08 |
| CCN1C(=O)c2cc(NC(=O)CCC3CCCC3)ccc2Oc2ccccc21 | -12 | 1.41 |
| CCCCS(=O)(=O)NCC1(c2ccccn2)CC1 | -21 | 2.76 |
| CN(CCNC(=O)C1CCN(c2ccc(-c3ccccc3)nn2)CC1)C1CCCCC1 | 8 | -0.75 |
| Cc1ccc(C(=O)NCc2cccnc2-n2cnc3ccccc32)c(O)c1 | 14 | -1.79 |
| Cc1cc2c(cc(C(=O)NCc3ccccc3)n2CCCOc2ccccc2)o1 | -12 | 1.66 |

| Compound | % Inhibition [%] | Z score |
| --- | --- | --- |
| O[C@@H]1CCN(C2CCN(c3cccc(-c4ccc(Cl)cc4)c3)CC2)C1 | -7 | 1.25 |
| CC(C)CN(Cc1cc(Cl)ccc1OS(=O)(=O)c1ccc(F)cc1)C(=O)c1ccccc1Cl | 11 | -1.49 |
| CC(C)CN1CCN(C(=O)[C@@H]2C[C@H](Oc3ccccc3)CN2C2CCOCC2)CC1 | -10 | 1.88 |
| COc1cc(CC(=O)Nc2scnc2C)ccc1Cl | -5 | 0.62 |
| O=C1CC[C@@]2(CCCO2)CCN1Cc1ccc2ccccc2c1 | -11 | 2.05 |
| CCc1ncc(C(=O)N(C)[C@@H](C)c2cc(-c3ccccc3)[nH]n2)cn1 | -5 | 0.72 |
| CCc1noc(C(C(C)CC)N2Cc3ccccc3C2=O)n1 (centres undefined) | 0 | -0.05 |
| Cc1ccc(-c2nc3ccccn3c2Nc2ccc3c(c2)OCCO3)o1 | -17 | 1.7 |
| COc1cccc(CNC(C)(C)C)c1OCC(=O)NC(C)(C)C | 37 | -4.93 |
| Cc1ccccc1NC(=O)c1cnn2c3c(cnc12)CCCCCC3 | 30 | -4.32 |
| COc1ccnc(CN2CCN(S(C)(=O)=O)c3ccccc3C2)c1 | -6 | 0.56 |
| Cc1ccsc1-c1nnc(NC(=O)Cc2ccc(Cl)cc2)s1 | -1 | 0.1 |
| CC(C)N1CCO[C@@H](CC(=O)N(C)Cc2ccsc2)C1 | -10 | 1.13 |
| COCc1nc(C(=O)N(CC(F)(F)F)c2ccccn2)cs1 | -14 | 1.73 |
| Cc1ncccc1NC(=O)C(=O)N(Cc1ccccc1F)C1CCC1 | -2 | 0.23 |
| O=C(Cn1ccc2ccccc21)N1CCC(N2C(=O)COC2=O)CC1 | 2 | -0.46 |
| O=C(N1CCCC1)N1CC[C@]2(O)CCN(c3noc(-c4ccccc4)n3)C[C@@H]2C1 | -6 | 1.11 |
| O=C(NCc1cc(Br)c[nH]1)c1ccccc1Br | -1 | 0.14 |
| CC(C)c1cc(C(=O)N2CCCCC2)nc2ccnn12 | -3 | 0.57 |
| N#Cc1ccc(C(C(N)=O)N2CCC2c2ccc(Cl)cc2)cc1 (centres undefined) | 1 | -0.15 |
| O=C(c1c[nH]nc1-c1ccccc1)N1CC(N2CCOCC2)C1 | 5 | -1.09 |
| CC(C)(CO)[C@H](CNC1Cc2ccccc2C1)c1ccccc1 | -3 | 0.29 |

| Compound | % Inhibition [%] | Z score |
| --- | --- | --- |
| Cc1ccc(-c2noc([C@@H]3C[C@@H](O)CN3)n2)cc1 | 1 | -0.2 |
| Cc1nn(Cc2ccccc2)c(Cl)c1CN1CCC(NS(C)(=O)=O)CC1 | -12 | 1.18 |
| CC1(C)C(=O)NCCN1C(=O)c1cc2cc(F)ccc2o1 | 12 | -1.39 |
| COCc1nsc(N2CCC3CCC(C2)N3Cc2ccccc2)n1 (centres undefined) | -1 | 0.11 |
| O=c1[nH]c(CCN2CCOc3ccccc32)nc2ccccc12 | 34 | -3.8 |
| CCC(CC)C(=O)NCCCN1CCOCC1 | -4 | 0.57 |
| c1cc(-c2ccc(-c3ccn[nH]3)cc2)cc(-n2cnnc2)c1 | -18 | 2.36 |
| Cc1ccc(C(=O)N2CCC(CC(=O)N3CCOCC3)CC2)c(O)c1 | -9 | 1.48 |
| CC(C)c1ocnc1C(=O)NS(=O)(=O)N1CCCCCCC1 | 3 | -0.41 |
| CC(C)c1ccc(NCc2cccnc2Oc2ccc(F)c(F)c2)nn1 | -8 | 0.72 |
| CC(C)(C)CNC1CCOCC1C1CCCN1C(=O)OC(C)(C)C (centres undefined) | -7 | 0.95 |
| COC[C@H]1C[C@@H](NC(=O)c2ccc(OC)cc2)[C@H](O)[C@@H]1O | 4 | -0.7 |
| CC(=O)c1ccc(N2CCOCC2)c(-c2ccc3c(c2)OCCO3)c1 | -5 | 0.86 |
| COc1ccccc1C1(CNC(=O)c2snnc2C)CCOCC1 | -15 | 1.66 |
| CN(CC(F)(F)F)C(=O)CN1CCOC2CCCC21 (centres undefined) | -9 | 1.18 |
| Cc1nc(C)c(CCN[C@@H](C)c2cc3ccccc3o2)s1 | -2 | 0.34 |
| C=CCNC(=O)c1cccnc1-c1c[nH]c2c(C)cccc12 | -11 | 1.05 |
| CCOC(=O)c1cc2n(n1)C[C@@](C)(C(=O)NCCOC)N(c1cccc(F)c1)C2=O | 10 | -1.14 |
| C[C@@H](Cc1ccccc1C(F)(F)F)N(C)C(=O)c1cc(O)ccn1 | -13 | 2.05 |
| Cc1nsc(N2CCOCC2CC(C)O)n1 (centres undefined) | 0 | -0.05 |
| CCc1nc(CNS(=O)(=O)C[C@@]23CC[C@@H](CC2=O)C3(C)C)cs1 | -8 | 0.82 |
